This is an account of results in the antibiotic and cytotoxicity screens of Wong et al. (2023).

This is one part of the list.

In test [1] the test system is HSkMC (human skeletal muscle cells). The experiment in a line: cytotoxicity call (relative viability < 0.9). As to conditions: 10 µM.
In test [2] the test system is HepG2. The experiment in a line: cytotoxicity call (relative viability < 0.9). As to conditions: 10 µM.
Test [3] has as its system S. aureus RN4220. The test can be described thus: growth inhibition call (relative growth <= 0.2). The settings on record: 50 µM.

In the case of `COCC#Cc1ccc2c(c1)O[C@@H](CN(C)C(=O)c1ccccc1)[C@H](C)CN([C@@H](C)CO)S2(=O)=O`, the cytotoxicity call in test [1] and in test [2] was “inactive” in each case. The growth inhibition call in test [3] was “inactive”.

For `COC(=O)[C@H]1NCCS1`, the cytotoxicity call in test [1] and in test [2] was “inactive” throughout. Besides, the growth inhibition call in test [3] is “inactive”.

Regarding `CCCC[C@@H](C)/C=C(C)/C=C(\C)C(=O)NC1=C[C@@](O)(/C=C/C=C/C=C/C(=O)NC2C(=O)CCC2=O)[C@@H]2O[C@@H]2C1=O`, the cytotoxicity call in test [1] and in test [2] was “active” throughout. The growth inhibition call in test [3] was “active”.

Regarding `CCS(=O)(=O)N1C[C@]2(CCN(CC2)Cc2cccc(c2)OC)c2c([nH]c3cc(ccc23)OC)[C@H]1CO`, the cytotoxicity call in test [1] and in test [2] was “inactive” each time. Besides, the growth inhibition call in test [3] is “inactive”.

For the compound `C[C@H](CO)N1C[C@H](C)[C@@H](CN(C)C(=O)Nc2cccc(Cl)c2Cl)OCc2ccccc2-c2c(n(C)c3ccccc23)C1=O`, the cytotoxicity call in test [1] and in test [2] was “active” throughout. The growth inhibition call in test [3] is “inactive”.

For `O=S(=O)([O-])CCS.[Na+]`, the cytotoxicity call in test [1] and in test [2] was “inactive” in each case. Besides, the growth inhibition call in test [3] is “inactive”.

Consider `Cc1ccccc1-c1ccc2c(c1)O[C@H](CN(C)C(=O)Nc1ccc(C(F)(F)F)cc1)[C@H](C)CN([C@H](C)CO)S2(=O)=O`, for which the cytotoxicity call in test [1] and in test [2] was “inactive” each time. Also, in test [3], the growth inhibition call was “inactive”.

As for `Cc1noc(C)c1S(=O)(=O)Nc1ccc2c(c1)CC(=O)N([C@@H](C)CO)C[C@H](C)[C@H](CN(C)CC1CC1)O2`, the cytotoxicity call in test [1] and in test [2] was “inactive” in each case. Further, the growth inhibition call in test [3] was “inactive”.

On to `C[C@H](CO)N1C[C@H](C)[C@@H](CN(C)C(=O)Nc2ccccc2)Oc2ccc(NS(C)(=O)=O)cc2CC1=O`, for which the cytotoxicity call in test [1] and in test [2] was “inactive” throughout. For the same compound, the growth inhibition call in test [3] was “inactive”.

`O=c1[nH]c(=O)n([C@H]2C[C@H](O)[C@@H](CO)O2)cc1Br`: the cytotoxicity call in test [1] and in test [2] was “inactive” in each case. Moreover, in test [3], the growth inhibition call is “inactive”.

As for `COc1ccc(S(=O)(=O)N(C)C[C@H]2OCCCC[C@H](C)Oc3ccc(NC(=O)Nc4ccc(C(F)(F)F)cc4)cc3C(=O)N([C@H](C)CO)C[C@H]2C)cc1`, the cytotoxicity call in test [1] and in test [2] was “inactive” each time. Also, the growth inhibition call in test [3] is “inactive”.

Turning to `CC(C)[C@@H](N)c1nc2c([nH]1)CCCC2`, the cytotoxicity call in test [1] and in test [2] was “inactive” in each case. In addition, the growth inhibition call in test [3] is “inactive”.

Consider `O=C(C[C@H]1C=C[C@@H](NC(=O)Nc2ccc3c(c2)OCO3)[C@H](CO)O1)NCCCN1CCOCC1`, for which the cytotoxicity call in test [1] and in test [2] was “inactive” in each case. Besides, the growth inhibition call in test [3] was “inactive”.

On to `C[C@H](CO)N1C[C@H](C)[C@H](CN(C)C(=O)Nc2ccc3c(c2)OCO3)OCCCC[C@H](C)Oc2ccc(NS(=O)(=O)c3ccccc3)cc2C1=O`, for which the cytotoxicity call in test [1] and in test [2] was “inactive” throughout. Also, the growth inhibition call in test [3] is “inactive”.

For the compound `CCNC(=O)N1CCCC[C@@H]1CO`, the cytotoxicity call in test [1] and in test [2] was “inactive” in each case. For the same compound, the growth inhibition call in test [3] was “inactive”.

With `COc1ccccc1NC(=O)N(C)C[C@@H]1Oc2ncc(Br)cc2C(=O)N([C@@H](C)CO)C[C@@H]1C`, the cytotoxicity call in test [1] and in test [2] was “inactive” throughout. Besides, in test [3], the growth inhibition call was “inactive”.

With `COc1ccc(CNC(=O)C[C@H]2CC[C@H]3[C@H](COc4ccc(NC(=O)C5CC5)cc4C(=O)N3C)O2)cc1`, the cytotoxicity call in test [1] and in test [2] was “inactive” each time. For the same compound, the growth inhibition call in test [3] is “inactive”.

On to `COCC#Cc1ccc2c(c1)O[C@@H](CN(C)S(=O)(=O)c1cccc(OC)c1)[C@H](C)CN([C@@H](C)CO)S2(=O)=O`, for which the cytotoxicity call in test [1] and in test [2] was “inactive” each time. Moreover, the growth inhibition call in test [3] is “inactive”.

For `CC(=C/C(=O)O)/C=C/c1ccccc1`, the cytotoxicity call in test [1] and in test [2] was “inactive” each time. The growth inhibition call in test [3] is “inactive”.

As to `C[C@@H]1CN([C@@H](C)CO)C(=O)Cc2cc(NC(=O)Nc3ccccc3)ccc2O[C@H]1CN(C)Cc1ccc(C(F)(F)F)cc1`, the cytotoxicity call in test [1] and in test [2] was “active” in each case. Further, the growth inhibition call in test [3] was “inactive”.

For `CC(C)C[C@@H](C(=O)N[C@@H](Cc1ccc(OCc2ccccc2)cc1)C(=O)NC(C)(C)C)N(C)Cc1ccc(C(C)(C)C)cc1`, the cytotoxicity call in test [1] and in test [2] was “inactive” throughout. In test [3], the growth inhibition call is “inactive”.

As for `NC[C@H](c1cccc(F)c1)N1CCCCC1`, the cytotoxicity call in test [1] and in test [2] was “inactive” each time. Moreover, in test [3], the growth inhibition call is “inactive”.

With `COc1cccc(S(=O)(=O)N2C[C@H](O)COC[C@@H]3O[C@@H](CC(=O)N4CCN(c5ccccc5)CC4)CC[C@H]32)c1`, the cytotoxicity call in test [1] and in test [2] was “inactive” each time. Further, the growth inhibition call in test [3] is “inactive”.

Consider `C[C@H]1CN([C@@H](C)CO)C(=O)c2cc(NC(=O)C3CCCCC3)ccc2O[C@H]1CN(C)Cc1ccc(-c2ccccc2)cc1`, for which the cytotoxicity call in test [1] was “inactive”. Also, the cytotoxicity call in test [2] is “active”. Moreover, in test [3], the growth inhibition call was “inactive”.

With `COc1ccc(CN(C)C[C@@H]2OCCCC[C@@H](C)Oc3ccc(NC(=O)NC(C)C)cc3C(=O)N([C@@H](C)CO)C[C@H]2C)cc1`, the cytotoxicity call in test [1] and in test [2] was “inactive” each time. The growth inhibition call in test [3] is “inactive”.

With `CC(C)C[C@@H]1NC(=O)[C@@H]2C[C@H](C(=O)NCCCCCCN(C)C)[C@H](c3cccc(OCCO)c3)N2C1=O`, the cytotoxicity call in test [1] and in test [2] was “inactive” in each case. For the same compound, the growth inhibition call in test [3] was “inactive”.

Take `N#Cc1ccc(-c2ccccc2)nc1`: the cytotoxicity call in test [1] and in test [2] was “inactive” throughout. Also, the growth inhibition call in test [3] is “inactive”.

For the compound `C[C@H]1CCCCO[C@@H](CN(C)S(=O)(=O)c2ccccc2)[C@@H](C)CN([C@@H](C)CO)C(=O)c2cc(NS(C)(=O)=O)ccc2O1`, the cytotoxicity call in test [1] and in test [2] was “inactive” throughout. Further, the growth inhibition call in test [3] was “inactive”.

On to `C[C@@H]1CN([C@@H](C)CO)C(=O)c2cc(NC(=O)Cn3cnnn3)ccc2O[C@@H]1CN(C)Cc1ccc(C(F)(F)F)cc1`, for which the cytotoxicity call in test [1] and in test [2] was “inactive” in each case. The growth inhibition call in test [3] is “inactive”.
